# Source: PubChem BioAssay AID1671188 (National Center for Advancing Translational Sciences (NCATS), 2021)
# Hit rate of the full screen: of about 100,000 compounds, about 250 (0.25%) were called active. The shares of active, inactive and inconclusive entries below differ from those in the screen. Calls come from the whole dose curve; as a rule, active = well fitted inhibition curve with a large enough effect; inconclusive = small, poorly fitted or top-dose-only effect; inactive = flat fitted curve, though single readings scatter. No potency is given beside an inconclusive call; the fits are too rough.
# Target: Alanine aminotransferase 2 (Homo sapiens) (UniProt Q8TD30)
# Chain of UniProt Q8TD30 (Q8TD30 whole entry, looked up): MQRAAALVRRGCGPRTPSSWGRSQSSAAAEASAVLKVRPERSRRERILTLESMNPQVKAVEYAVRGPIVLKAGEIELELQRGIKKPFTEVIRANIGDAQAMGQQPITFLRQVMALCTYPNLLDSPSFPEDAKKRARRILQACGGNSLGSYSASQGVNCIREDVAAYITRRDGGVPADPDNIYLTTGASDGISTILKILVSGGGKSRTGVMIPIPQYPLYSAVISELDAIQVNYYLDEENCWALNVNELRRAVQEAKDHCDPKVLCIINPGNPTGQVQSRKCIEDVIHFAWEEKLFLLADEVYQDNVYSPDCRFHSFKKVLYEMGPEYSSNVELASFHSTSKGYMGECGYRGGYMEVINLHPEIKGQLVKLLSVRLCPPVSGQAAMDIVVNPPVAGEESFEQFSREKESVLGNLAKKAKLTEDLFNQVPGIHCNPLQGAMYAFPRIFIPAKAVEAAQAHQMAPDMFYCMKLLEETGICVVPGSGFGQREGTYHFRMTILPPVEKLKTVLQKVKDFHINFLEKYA
# Assay: Primary qHTS assay for inhibitors of Glutamate pyruvate transaminase 2 (GPT2); note: nearly all actives have a fitted effect of over 60% in size
# Settings: Recombinant GPT2, coupled pyruvate oxidase/HRP Amplex Red fluorescence; activity change, negative = inhibition: at 57.7 µM (top of the series) unless noted; series mostly up to 57.7 µM
# Outline: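 Inhibition is scored from Amplex Red fluorescence generated when pyruvate oxidase and HRP act on pyruvate released by GPT2. Reactions contain 10ng/uL enzyme, 250uM a-KG and 2mM L-alanine and run 30 min at room temperature.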
# % is set by controls: 0 for no effect and ±100 for the full control effect; potency is the fitted concentration of half-maximal effect; tags give direction and shape of the fitted curve.
SMILES,Potency,"activity change, negative = inhibition",outcome
Cc1cc(F)ccc1[C@H]1C[C@@H](N2CCN3C(=O)CC[C@H]3C2)CCN1C(=O)N(C)[C@H](C)c1cc(C(F)(F)F)cc(C(F)(F)F)c1,"inconclusive [inhibitor, single point]",,
CN(C)c1ccc(C(=O)N2CCC3(CC2)NC(=O)N(c2ccccc2)N3)cc1,"inconclusive [inhibitor, partial curve, poor fit]",,
C[S+](=O)([O-])CCn1ncc2cc(OCC3CCN(C(=O)OC4CCCC4)CC3)ccc21,,inactive: 0.382%,
O=C(c1ccc(C(F)(F)F)cc1)N1CCn2c(nn(-c3ccc(C(F)(F)F)cc3)c2=O)C1,,inactive: -1.3%,
CN(C)CCN(C)C(=O)c1ccc(-c2ncc3cnc(-c4cccc(F)c4)cn23)cc1,"inconclusive [inhibitor, full curve, poor fit]",,
COc1ccc(-c2cc(N3CCN(C(=O)Cc4ccc(F)cc4)CC3)n[nH]2)cc1,,,inactive
Cc1cc2c(F)c(Oc3ncnn4cc(OCC(C)OC(=O)C(C)N)c(C)c34)ccc2[nH]1 (configuration not stated),"inconclusive [inhibitor, single point]",,
O=C(Nc1ccccc1F)N1CC2CCC(C1)N2Cc1cccc(-c2ccsc2)c1,,inactive: -1.94%,
CCCC(=O)Nc1cc(-c2cccnc2)nn1-c1ccccc1,,inactive: -5.71% [at 88.5 µM],
COc1ccc(-c2cc(N3CCCC(NC(=O)c4cc(OC)cc(OC)c4)C3)n[nH]2)cc1 (configuration not stated),,,inactive
Cn1cnnc1CC1CCN(S(=O)(=O)c2ccc(F)cc2)CC1,"inconclusive [inhibitor, full curve, poor fit]",,
CCn1cc(S(=O)(=O)N2CCCCC2CCn2cc(-c3ccccc3)nn2)cn1 (configuration not stated),"inconclusive [inhibitor, single point]",,
COc1ccc(N2CC(c3noc(-c4cc(C)cc(C)c4)n3)CC2=O)cc1 (configuration not stated),"inconclusive [inhibitor, single point]",,
CN1CC[C@H](c2nnc(-c3ccccc3)o2)C1,,,inactive [at 88.5 µM]
CN1CC(=O)N(c2ccc([N+](=O)[O-])cc2)Cc2c1ncnc2N1CCOCC1,"inconclusive [inhibitor, single point]",,
Cc1cccc(CN2CCCC(Cc3ncc(C)n3C(C)C)C2)c1 (configuration not stated),,,inactive
COc1ccc(N2CCN(C(=O)COc3ccc(NC(C)=O)cn3)CC2)cc1,"inconclusive [inhibitor, full curve]",,
O=C(c1cccc(Cl)c1)N1CCC2(CC1)NC(=O)N(c1ccccc1Cl)N2,"inconclusive [inhibitor, single point]",,
COc1ccc(C2NC(=O)N(CC(=O)N3CCC(C)CC3)C3=C2C(=O)OC3)cc1 (configuration not stated),"inconclusive [inhibitor, partial curve, poor fit]",,
O=C(NCCc1ccccc1)C1CN(C2CCCCC2)C(=O)N1 (configuration not stated),,inactive: 2.65% [at 88.5 µM],
O=C1N(CCC2CCOC2)c2ccccc2NC12CCNCC2 (configuration not stated),"inconclusive [inhibitor, partial curve]",,

SMILES,Potency,"activity change, negative = inhibition",outcome
COc1cc2c(cc1O)C1(Cc3ccc4c(c3C1=O)OCO4)N(C)CC2 (configuration not stated),"inconclusive [inhibitor, single point]",,
CN1CC(=O)N2CCN(C(=O)NC34CC5CC(CC(C5)C3)C4)CC2C1=O (configuration not stated),"inconclusive [inhibitor, full curve, poor fit]",,
O=c1cc2c(nn1Cc1cccc(Br)c1)CCCCC2,"inconclusive [inhibitor, single point]",,
O=C(c1cc(F)ccc1Cl)N1CCC(n2cnnc2C2CC2)CC1,"inconclusive [inhibitor, partial curve, poor fit]",,
Cc1c(CC(=O)NC(C)C)c2c(n1Cc1ccc(F)cc1)CCCC2=O,"inconclusive [inhibitor, single point]",,
COc1ccc(-n2nc3n(c2=O)CCN(C(=O)c2ccc(C(F)(F)F)cc2)C3)cc1,,,inactive
O=C(Cn1ccn2nc(-c3ccc(F)cc3)c(CO)c2c1=O)Nc1ccc(Br)cc1,"inconclusive [inhibitor, single point]",,
Cc1ncc(CC(=O)N2CCC3(CC2)CC(C(=O)O)N(C)C3)c(=O)[nH]1 (configuration not stated),"inconclusive [inhibitor, single point]",,
Cc1noc(-c2cccc(OC3CN(C(=O)c4ccoc4)C3)c2)n1,,inactive: 0.753%,
CN(c1ccccc1)c1cc(=O)c2ccnc(Nc3cccnc3)c2o1,"inconclusive [inhibitor, single point]",,
COc1ccc(CNc2ncnc3c2CN(c2ccccc2C)C(=O)CN3C)cc1,"inconclusive [inhibitor, single point]",,
Cc1ccccc1CN1C[C@H](O)C[C@H]1c1nc(-c2cccnc2)no1,"inconclusive [inhibitor, partial curve]",,
Cc1cnccc1N1CCCN(C(=O)C2CCOc3ccccc3C2)CC1 (configuration not stated),"inconclusive [inhibitor, full curve, poor fit]",,
O=C(NCCC1CCN(C(=O)Nc2cccc(F)c2)CC1)c1ccoc1,"inconclusive [inhibitor, single point]",,
Cc1cc(C)cc(-c2ccc(CN3CCCC3C(=O)N3CCC(c4ccccc4)CC3)cc2)c1 (configuration not stated),,,inactive
CCN(CC)C(=O)CCc1c(C)nn(-c2ccccc2C)c1Oc1cccc(F)c1,,inactive: -1.48%,
COCc1ccc(CN2CCC(Oc3ccc(C(=O)NC4CCCC4)cc3Cl)CC2)o1,,inactive: 0.957%,
Cc1cccc(-n2c(=O)c3c(cc(C)n3C)n(CC(=O)Nc3ccc4c(c3)OCO4)c2=O)c1,"inconclusive [inhibitor, single point]",,
S=c1[nH]c2ccccc2s1,"inconclusive [inhibitor, partial curve, poor fit]",,
O=C(Nc1cccc(Cl)c1)c1nc2sccn2c1-c1ccc(C(F)(F)F)cc1,"inconclusive [inhibitor, single point]",,
CCn1ncc(N2CCC(NC(=O)c3sccc3C)CC2)cc1=O,"inconclusive [inhibitor, full curve, poor fit]",,
